Measurements as given in the supplement of paper PMC10126150.
Sequences with one replicate were seen in a single cluster, so their values are uncertain.

What follows are sequences tested on ATP (assay: switch fluorescence ratio, 500 uM ATP over buffer (Cy3 cluster intensity, sum of 5 cycles each) (fold (ratio)); higher = stronger signal-on switching upon ATP binding; sequences stand for … in TCGTCGGCAGCGTCAGATGTGTATAAGAGACAGTTTTTTTTTTTTTTTTTTTTTTTTT…TC). Settings: aptamer strand: ATP DNA aptamer (quencher-CACCTGGGGGAGTATTGCGGAGGAAGG + anchor), 100 nM annealed; ATP concentration: 500 uM; one replicate.
Summary of the method: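 Values give the fluorescence ratio for each switch-domain sequence, averaged from per-cluster ratios of summed target-cycle to summed buffer-cycle Cy3 intensity. The Cy3-labelled switching-strand clusters sat on a modified Illumina MiSeq flow-cell, were annealed to 100 nM quencher-labelled ATP aptamer, and were imaged in selection buffer, then after 15 min with 500 uM ATP at 22 °C. Five cycles ran with NaOH stripping and re-annealing between them, and clusters outside 100-1000 RFU were excluded.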
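Also: ATP exposure 15 min at 22 °C before imaging.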

| Sequence | switch fluorescence ratio |
| --- | --- |
| TGGGCATAAC | 0.992 |
| TGGGCCAGGG | 1.04 |
| TGGGCCATAG | 1.43 |
| TGGGCCATGG | 0.942 |
| TGGGCCGACG | 1.06 |
| TGGGCCTTTT | 0.991 |
| TGGGCGCGAT | 0.979 |
| TGGGCGCGGG | 1.1 |
| TGGGCGGCAG | 0.969 |
| TGGGCGTAAT | 1.35 |
| TGGGCGTCC | 1 |
| TGGGCGTGGG | 0.98 |
| TGGGCTCAGA | 1 |
| TGGGCTGCTG | 0.989 |
| TGGGGAGCGG | 1.07 |
| TGGGGCAGAG | 0.971 |
| TGGGGCCACT | 0.982 |
| TGGGGCCATC | 0.985 |
| TGGGGCTGGC | 0.958 |
| TGGGGGATGA | 1.02 |
| TGGGGGGTAA | 0.943 |
| TGGGGGGTC | 0.938 |
| TGGGGTAGG | 1.04 |
| TGGGGTAGT | 0.982 |
| TGGGGTCCCG | 0.961 |
| TGGGGTCTAA | 0.957 |

| Sequence | switch fluorescence ratio |
| --- | --- |
| TGGGTAATTC | 1.03 |
| TGGGTACAGG | 1.04 |
| TGGGTAGAGG | 1.01 |
| TGGGTCGTCC | 1 |
| TGGGTGATGC | 1.06 |
| TGGGTGTGAG | 0.995 |
| TGGGTTAACG | 1.01 |
| TGGGTTAAG | 0.996 |
| TGGGTTGG | 0.955 |
| TGGGTTGTAA | 0.966 |
| TGGTAAAATG | 0.951 |
| TGGTAACTAG | 1.02 |
| TGGTAGAACG | 0.985 |
| TGGTAGGGCC | 1.01 |
| TGGTAGTGTT | 1.01 |
| TGGTATAG | 1 |
| TGGTATAGAT | 1.02 |
| TGGTCACGT | 0.989 |
| TGGTCGGCAT | 1.01 |
| TGGTCTACTT | 1.04 |
| TGGTCTCAAA | 0.988 |
| TGGTCTCACC | 1.01 |
| TGGTGACAA | 1 |
| TGGTGATATT | 1.03 |
| TGGTGCAAAT | 1.03 |
| TGGTGCATTA | 0.989 |

| Sequence | switch fluorescence ratio |
| --- | --- |
| TGGTGCTGAG | 1.01 |
| TGGTGCTGCC | 1.03 |
| TGGTGGCTGA | 1.01 |
| TGGTGGTTA | 1.04 |
| TGGTGGTTAG | 0.956 |
| TGGTGTCTTT | 1.01 |
| TGGTGTGTGT | 0.985 |
| TGGTGTTATG | 0.966 |
| TGGTGTTGAG | 0.989 |
| TGGTTAAACC | 0.984 |
| TGGTTAATGT | 0.978 |
| TGGTTAGGCA | 0.991 |
| TGGTTATCGT | 0.925 |
| TGGTTCAGTA | 0.997 |
| TGGTTGAAGG | 0.978 |
| TGGTTGAGCA | 0.968 |
| TGGTTGTGCC | 1.03 |
| TGGTTTAATC | 1.05 |
| TGGTTTACGA | 1 |
| TGGTTTATGT | 1.01 |
| TGGTTTGCGG | 0.974 |
| TGTAAAAACT | 0.964 |
| TGTAAATATA | 0.983 |
| TGTAACTAGT | 1.03 |
| TGTAAGAGGG | 1 |
| TGTAAGCCGT | 1.03 |

| Sequence | switch fluorescence ratio |
| --- | --- |
| TGTAAGGTCA | 0.973 |
| TGTAAGTACT | 1.01 |
| TGTAATCATG | 1 |
| TGTAATGAGT | 0.986 |
| TGTAATGTAT | 1.02 |
| TGTACGGACG | 1.06 |
| TGTACTAAGA | 1 |
| TGTAGCTATT | 1.1 |
| TGTAGCTTTT | 0.991 |
| TGTAGGAATT | 0.999 |
| TGTAGGACGA | 0.982 |
| TGTAGGCTAC | 1.05 |
| TGTAGGTAGG | 1 |
| TGTAGTTGAT | 1.01 |
| TGTATCCATT | 0.998 |
| TGTATCCCGT | 0.974 |
| TGTATCGGAT | 1.01 |
| TGTATCTTTA | 0.979 |
| TGTATGCAAT | 1.08 |
| TGTATGCAGA | 1.03 |
| TGTATGCTCC | 1.05 |
| TGTATTAGCA | 0.976 |
| TGTATTGCGT | 0.985 |
